According to paper PMC4336329 (PLoS ONE, 2015):
The campaign covered roughly 310,000 compounds. About 2,200 (0.71%) showed an effect of 50% or more. Effects have a minus sign here. The list shows a part of the results.

Molecular target: human ether-à-go-go-related gene (hERG) potassium channel (human, UniProt Q12809)
Assay: primary screen, population patch clamp on CHO cells stably expressing hERG

human ether-à-go-go-related gene (hERG) potassium channel, sequence (Q12809 whole entry, looked up): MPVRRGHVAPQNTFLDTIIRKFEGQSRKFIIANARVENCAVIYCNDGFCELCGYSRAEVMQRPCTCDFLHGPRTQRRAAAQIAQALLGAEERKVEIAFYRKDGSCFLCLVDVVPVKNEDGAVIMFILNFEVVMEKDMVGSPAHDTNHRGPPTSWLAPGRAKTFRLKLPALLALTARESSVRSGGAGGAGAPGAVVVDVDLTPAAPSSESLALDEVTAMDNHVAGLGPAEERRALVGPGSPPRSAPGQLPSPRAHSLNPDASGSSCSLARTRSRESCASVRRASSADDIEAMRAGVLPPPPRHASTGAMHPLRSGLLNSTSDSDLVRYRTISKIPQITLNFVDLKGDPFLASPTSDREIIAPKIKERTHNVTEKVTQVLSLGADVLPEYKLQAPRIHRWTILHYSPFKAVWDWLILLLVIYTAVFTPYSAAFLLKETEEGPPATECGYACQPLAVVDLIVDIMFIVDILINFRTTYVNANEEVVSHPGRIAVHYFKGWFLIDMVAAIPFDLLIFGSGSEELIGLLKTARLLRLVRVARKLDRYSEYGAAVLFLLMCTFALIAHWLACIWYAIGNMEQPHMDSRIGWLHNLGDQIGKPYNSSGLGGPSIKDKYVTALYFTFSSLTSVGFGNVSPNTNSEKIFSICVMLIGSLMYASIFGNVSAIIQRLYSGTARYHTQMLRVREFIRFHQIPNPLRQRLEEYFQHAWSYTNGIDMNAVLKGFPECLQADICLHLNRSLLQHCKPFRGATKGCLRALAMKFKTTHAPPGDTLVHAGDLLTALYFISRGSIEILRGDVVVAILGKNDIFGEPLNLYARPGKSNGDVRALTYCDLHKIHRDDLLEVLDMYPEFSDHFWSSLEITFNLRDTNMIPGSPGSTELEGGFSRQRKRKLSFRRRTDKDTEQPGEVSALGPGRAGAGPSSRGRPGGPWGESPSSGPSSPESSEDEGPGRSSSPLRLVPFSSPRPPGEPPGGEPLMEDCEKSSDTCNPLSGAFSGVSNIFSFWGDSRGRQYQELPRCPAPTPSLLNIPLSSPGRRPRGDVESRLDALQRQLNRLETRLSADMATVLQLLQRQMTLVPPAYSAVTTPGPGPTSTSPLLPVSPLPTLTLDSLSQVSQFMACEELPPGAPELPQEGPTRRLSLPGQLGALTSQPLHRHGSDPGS

Compound | hERG current change (%, negative = inhibition) at 1uM [%]
Cc1cnc(C(=O)Nc2ccc(F)c(F)c2)cn1 | 16.2
CCOC(=O)C1C(c2cccnc2)NC(=O)NC1(O)C(F)(F)F (stereo not shown) | 10.1
CC(C)(C)c1nc(SCC(=O)NNC(=O)c2ccccc2)c2ccccc2n1 | 14.4
O=C(Nc1ccc2c(c1)OCO2)O[C@@H]1C[C@H]2CCC(=O)N3CC[C@@H](C1)[C@@H]23 | 19.8
CC1CCCCN1CCNC(=O)CCc1nnc2n(Cc3ccccc3)c(=O)c3ccccc3n12 (stereo not shown) | -8.67
Cc1ccc(NC(=O)COC(=O)CNC(=O)c2ccc3ccccc3c2)c([N+](=O)[O-])c1 | 11.3
CCNC(=S)N/N=C/c1cccc(OCc2c(F)cccc2Cl)c1 | 4.23
O=C(Nc1nnc(-c2ccccc2Cl)s1)c1ccccc1F | 13.1
CCCCN(C(=O)c1ccc(N2CCCC2=O)cc1)c1c(N)n(Cc2ccccc2)c(=O)[nH]c1=O | 9.93
C/C(N)=C(/C#N)C(=O)CSc1cc(Cl)ccc1Cl | -1.14
C=CCn1c(SCC(=O)N2CC(=O)Nc3ccccc32)nc2scc(-c3cccs3)c2c1=O | 19.9
CCCOC1CCCN(C(=O)c2ccc(OC3CCN(C(=O)CCOC)CC3)cc2)C1 (stereo not shown) | 18.2
O=[N+]([O-])c1ccc(N2CCN(c3ccc(Cl)nn3)CC2)cc1NC1CC1 | -4.89
COc1cc(SC)ccc1C(=O)NCCNC(=O)c1nonc1N | 6.87
Cc1cc(N2CCCC2)nc2ccc(NC(=S)NCCCN3CCC(C)CC3)cc12 | 6.25
CCOC(=O)C1CCN(Cc2cnc(Oc3ccc(N)cc3)s2)CC1 | 4.82
COC(=O)C(NC(=O)CN1C(=O)c2ccccc2C1=O)c1ccc(O)c(OC)c1 (stereo not shown) | 10.6
O=C(NN(C(=O)c1ccccc1)c1ccccc1)c1ccccc1 | 3.47
CCOc1cc([C@@H]2C[C@H]3CN(c4ccccc4)C(=O)[C@]34CCCN24)ccc1OC | 5.9
COCCCNC(=S)N1CCCN(c2nc3c(C)c(C)ccc3cc2C#N)CC1 | 7.45
CN(C)CCCNC(=O)c1cc(C(=O)c2ccccc2)c[nH]1 | 14.2
Cc1ccc(S(=O)(=O)N/N=C/c2ccc(OC3CSC3)cc2)cc1 | 2.89

Compound | hERG current change (%, negative = inhibition) at 1uM [%]
O=C1CC(N2CCN(S(=O)(=O)c3ccc(Cl)cc3)CC2)C(=O)N1CCc1ccccc1 (stereo not shown) | -19
COc1cc(OC)cc(-c2nnc(SCC(=O)N3CCCC3)o2)c1 | 1.79
O=C(Nc1ccccc1)NC1(C(=O)N2CCN(C(=O)c3ccco3)CC2)CCCCC1 | 13.2
Cc1cc(SCC(=O)OC(C)C(=O)N(C)c2ccccc2)nc2ccccc12 (stereo not shown) | 12.6
CCC(=O)N1CCN(c2ccc(NC(=S)NC(=O)c3cc4ccccc4o3)cc2)CC1 | 2.94
CC1(C)CC(NS(=O)(=O)c2cccc3ccccc23)CC(C)(C)N1 | 4.06
CCc1cccc(C)c1NC(=O)CCCN1C(=O)NC(C)(C)C1=O | 2.8
O=C(c1ccco1)N1CCCC(c2ccccc2)C1 (stereo not shown) | 8.56
OCCC1CN(Cc2cc3c(cc2Cl)OCO3)CCN1C1CCCC1 (stereo not shown) | 1.98
CCN=C1S/C(=C\c2ccc(OC)c(OCC)c2)C(=O)N1CC | 9.91
Cc1c2n(c3ccccc13)CCC2=O | 12.5
Cc1ccccc1NC(=O)CCNS(=O)(=O)c1ccc2[nH]c(=O)oc2c1 | 10.5
Nc1nonc1-c1nc2ccccc2n1CC(=O)Nc1ccccc1 | 3.06
CC(/C=N/NC(=O)CSc1nc(C)cc(C)n1)=C\c1ccccc1 | 9.6
Cc1ccc(-c2cn3nc(C)c(C)nc3n2)cc1 | 12
COc1ccc(CCNS(=O)(=O)c2cccc([N+](=O)[O-])c2)cc1OC | 10.4
Cc1cc(-c2cc(C(=O)NCc3ccccc3)on2)nc(NC2CCCC2)n1 | 17.6
COc1ccc(CCNS(=O)(=O)c2ccc3c(c2)NC(=O)CS3)cc1OC | 5.67
Cc1ccc2c(c1)N(C(C)C(=O)NCc1ccccn1)C(=O)CO2 (stereo not shown) | 3.85
COc1cc(C(=S)N2CCOCC2)ccc1OC(=O)c1ccc([N+](=O)[O-])cc1[N+](=O)[O-] | 15.5
CCOc1ccc(NC(=O)/C=C/c2ccc(OC)cc2)c([N+](=O)[O-])c1 | 7.64
COc1ccc(OC)c(C(C)NC(=S)NC2CCCCC2)c1 (stereo not shown) | 10.3

Compound | hERG current change (%, negative = inhibition) at 1uM [%]
CCOc1ccc(C(=O)Nc2c3c(nn2-c2cccc(C)c2C)CS(=O)C3)cc1 (stereo not shown) | 3.13
O=C(NN1C(=O)C2CC=C(Cl)CC2C1=O)c1ccncc1 (stereo not shown) | 16.1
O=C(CNC(=O)c1cccc(F)c1)OCC(=O)N1CCCc2ccccc21 | 8.08
O=C(CSc1ccc(F)cc1)Nc1ccc2c(c1)C(=O)NC2=O | 1.52
COc1ccc(CNC(=O)c2cncc(Br)c2)cc1 | 10.2
COC(=O)c1ccc(C2Nc3ccccc3NC3=C2C(=O)CC(C)(C)C3)cc1 (stereo not shown) | 10.2
CCOc1cc(/C=N/n2cnnc2)cc(Br)c1O | -4.42
NC(=O)CN1CCOCCOCCN(CC(N)=O)CCOCC1 | 2.84
Cc1nc2ccc(NC(=O)c3ccccc3)cc2s1 | 5.88
COc1cc(/C=N/NS(=O)(=O)c2ccc3ccccc3c2)ccc1OCc1ccc(C(=O)O)cc1 | 9.68
O=C(NN1C(=O)c2ccccc2NC1c1ccco1)c1ccc(Br)cc1 (stereo not shown) | -50.4
CCOC(=O)C(C)/C(C)=N/NC(=O)c1cc2ccccc2cc1O (stereo not shown) | 3.52
COc1ccc(CCNC(=O)c2ccc(N3CCCC3=O)cc2)cc1 | -1.28
CC(OC(=O)C1COc2ccccc2O1)C(=O)N(C)c1ccccc1 (stereo not shown) | 5.21
Cc1cccc(NC(=S)N2CCCCCC2)c1 | 11.7
COc1cc(CCCN2C(=S)NC[C@@H]2Cc2ccccc2)cc(OC)c1OC | -5.82
COc1ccc(NC(=S)NC2CC3CCC2C3)c(OC)c1 (stereo not shown) | 14.3
C=CCc1cc(OC)c2c(c1)OCO2 | 12.2
O=C(NCCS(=O)(=O)c1ccc(Br)cc1)c1c(F)cccc1F | 12.9
O=P(Oc1ccccc1)(Oc1ccccc1)c1ccccc1 | -2.75
COc1ccc(N2CCN(C(=O)CSc3ncccc3-c3nc4ccccc4[nH]3)CC2)cc1 | -26.6
COc1cc(NC(=O)CNC(c2ccccc2)c2ccccc2)cc(OC)c1OC | 11.8

Compound | hERG current change (%, negative = inhibition) at 1uM [%]
CC(=O)CCS(=O)(=O)c1ccc(Oc2ccc(S(=O)(=O)CCC(C)=O)cc2)cc1 | 9.57
CC1=C(C#N)C(Nc2cccc(C)n2)(C(F)(F)F)C(=O)N1 (stereo not shown) | 4.25
COC(=O)c1ccc2nc(NC(=O)CSCC(=O)OCC(=O)c3ccccc3)sc2c1 | 3.62
COc1ccc(C(=S)N2CCN(c3ccccc3Cl)CC2)cc1OC | 2.51
CCn1c(SCC(=O)Nc2ccc(Br)cn2)nnc1C1CC1 | -0.833
CCc1cc(C(c2ccc(OC)c(OC)c2)N2CCOCC2)c(NC(=O)c2ccccc2)s1 (stereo not shown) | 7.95
COc1ccc(-c2cc(C(=O)Nc3ccccc3N3CCOCC3)c3ccccc3n2)cc1OC | 8.56
CCOc1cc(C(=O)N2CCCC2)cc(OCC)c1OCC | 11.3
C=CCN=C1N[C@@H](c2ccccc2)C(C(=O)OC)=C(C)N1CCOC | -1.41
O=C(CSc1nc(O)cc(=O)[nH]1)Nc1ccc2c(c1)CCC2 | 18.4
CCOc1ccccc1NC(=O)CN1CCCCCC1.Cl | 22.3
COc1ccc(N(C(=O)c2ccccc2C)S(=O)(=O)c2cccs2)cc1 | 11.2
O=C(NN1CCOCC1)c1ccc(Cl)c(Cl)c1 | -13.9
CC(C(=O)OCC(=O)c1cccc([N+](=O)[O-])c1)N1C(=O)C2C3C=CC(C3)C2C1=O (stereo not shown) | 9.72
CCCn1c(C)nc2c(c1=O)c1nc3ccccc3nc1n2CCC1=CCCCC1 | 14.4
O=C(O)c1ccc2cccnc2c1O | 11.5
COc1ccc(Cl)cc1-n1c(C)cc(C(=O)OCC(=O)N2CC(=O)Nc3ccccc32)c1C | 4.99
COC(=O)c1cc2ccccc2c(-c2c(O)ccc3ccccc23)c1O | -2.98
CC(=O)NC(Cc1c[nH]c2ccccc12)C(=O)NCCc1ccccn1 (stereo not shown) | 17.5
Cn1c(OCc2ccc3c(c2)OCO3)nc2c1c(=O)n(Cc1cccc(Cl)c1)c(=O)n2C | 8.06
CC(=O)c1ccc(OCC(=O)N2CCCC(N3CCN(c4ccccc4C)CC3)C2)cc1 (stereo not shown) | -42.7
CCOc1ccc(-c2nn(-c3ccccc3)cc2/C=C2\SC(=S)N(Cc3ccco3)C2=O)cc1 | 11.1
